# According to PubChem BioAssay (NCI):
#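 Results reflect a 48-hour exposure of cells in 96-well plates to compound at five concentrations. TGI: concentration producing complete growth inhibition.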 For part of its entries the source gives two or more results. This list holds those alone. There may be further records. A record mostly stands for its own series of concentrations, which the source does not state; a value can be the end of its range.
# Tests used:
# Assay in all cases: NCI tumour cell line growth inhibition, 48 h
# MALME-3M melanoma = test system: MALME-3M melanoma
# SF-295 CNS = test system: SF-295 CNS
# SW-620 colon = test system: SW-620 colon
# OVCAR-4 ovarian = test system: OVCAR-4 ovarian
# A498 renal = test system: A498 renal
# OVCAR-3 ovarian = test system: OVCAR-3 ovarian
# NCI-H226 lung = test system: NCI-H226 lung
# HL-60(TB) leukemia = test system: HL-60(TB) leukemia
# DU-145 prostate = test system: DU-145 prostate
# 786-0 renal = test system: 786-0 renal
# A549 NSCLC = test system: A549 NSCLC
# P388 leukemia = test system: P388 leukemia
# NCI-H522 lung = test system: NCI-H522 lung
# M14 melanoma = test system: M14 melanoma
# EKVX NSCLC = test system: EKVX NSCLC
# HCT-15 colon = test system: HCT-15 colon
# SK-OV-3 ovarian = test system: SK-OV-3 ovarian
# MCF7 breast = test system: MCF7 breast
# NCI/ADR-RES ovarian = test system: NCI/ADR-RES ovarian
# KM12 colon = test system: KM12 colon
# NCI-H23 lung = test system: NCI-H23 lung
# SN12C renal = test system: SN12C renal
# HS 578T breast = test system: HS 578T breast
# SF-539 CNS = test system: SF-539 CNS
# DMS 273 small cell lung = test system: DMS 273 small cell lung
# HCT-116 colon = test system: HCT-116 colon
# RXF 393 renal = test system: RXF 393 renal
# COLO 205 colon = test system: COLO 205 colon
# NCI-H460 lung = test system: NCI-H460 lung
# P388/ADR leukemia = test system: P388/ADR leukemia
# SNB-78 CNS = test system: SNB-78 CNS
# MOLT-4 leukemia = test system: MOLT-4 leukemia
# CAKI-1 renal = test system: CAKI-1 renal
# DLD-1 colon = test system: DLD-1 colon
# LOX IMVI melanoma = test system: LOX IMVI melanoma
# SNB-19 CNS = test system: SNB-19 CNS
# UO-31 renal = test system: UO-31 renal
# K-562 leukemia = test system: K-562 leukemia
# MDA-MB-231 breast = test system: MDA-MB-231 breast
# SK-MEL-2 melanoma = test system: SK-MEL-2 melanoma
# SF-268 CNS = test system: SF-268 CNS
# CCRF-CEM leukemia = test system: CCRF-CEM leukemia
# SN12K1 renal = test system: SN12K1 renal
# HOP-18 NSCLC = test system: HOP-18 NSCLC
# HT29 colon = test system: HT29 colon
# HCC-2998 colon = test system: HCC-2998 colon
# OVCAR-8 ovarian = test system: OVCAR-8 ovarian
# HOP-62 NSCLC = test system: HOP-62 NSCLC
# U251 CNS = test system: U251 CNS
# IGROV1 ovarian = test system: IGROV1 ovarian
# SK-MEL-28 melanoma = test system: SK-MEL-28 melanoma
# M19-MEL melanoma = test system: M19-MEL melanoma
# HOP-92 NSCLC = test system: HOP-92 NSCLC
# SK-MEL-5 melanoma = test system: SK-MEL-5 melanoma
# SNB-75 CNS = test system: SNB-75 CNS
# RPMI-8226 leukemia = test system: RPMI-8226 leukemia
# DMS 114 small cell lung = test system: DMS 114 small cell lung
# UACC-62 melanoma = test system: UACC-62 melanoma
smiles,measurement,setting,value
CO[C@H](/C(C)=C/C=C/C(C)=C/c1coc(C)n1)[C@H](C)[C@H]1C[C@@H](O)[C@@]2(C)O[C@H]2/C=C/[C@@H](C)[C@@H]2C[C@@H](CC(=O)O2)C[C@H]2O[C@@H]2C(=O)O1,TGI,MALME-3M melanoma,"50 nM, 50 µM, 6.55 µM"
same,TGI,SF-295 CNS,0.5 nM [1 test] and 500 nM [mean of 2 tests] and < 46.4 nM [mean of 6 tests] and 0.000575 nM [mean of 8 tests]
same,TGI,SW-620 colon,0.5 nM [1 test] and 50 µM [mean of 3 tests] and 2.42 µM [mean of 5 tests] and 63.2 µM [mean of 8 tests]
same,TGI,OVCAR-4 ovarian,"0.474 nM, 419 nM, 50 µM, 60.7 µM"
same,TGI,A498 renal,797 nM [mean of 2 tests] and 32.3 nM [mean of 6 tests] and 0.00586 nM [mean of 7 tests] and < 31.6 nM [mean of 8 tests]
same,TGI,OVCAR-3 ovarian,0.5 nM [1 test] and 500 nM [mean of 2 tests] and < 89.4 nM [mean of 4 tests] and 3.16 nM [mean of 5 tests]
same,TGI,NCI-H226 lung,4.9 µM [mean of 2 tests] and 14.6 nM [mean of 3 tests] and < 12.2 nM [mean of 7 tests] and 0.00259 nM [mean of 9 tests]
same,TGI,HL-60(TB) leukemia,< 5e-05 nM [1 test] and 228 nM [mean of 7 tests] and 0.000107 nM [mean of 8 tests]
same,TGI,DU-145 prostate,> 100 µM [mean of 2 tests] and 0.428 nM [mean of 4 tests]
same,TGI,786-0 renal,0.624 nM and 10.8 µM
same,TGI,A549 NSCLC,"0.5 nM, 0.78 nM, 1.26 µM, 50 µM, 48.6 µM"
same,TGI,P388 leukemia,< 5e-05 nM [1 test] and 24.4 nM [mean of 2 tests] and 1.12 µM [mean of 3 tests] and 0.066 nM [mean of 4 tests] and 107 nM [mean of 5 tests]
same,TGI,NCI-H522 lung,< 5e-05 nM [1 test] and 500 nM [mean of 2 tests] and 0.000692 nM [mean of 5 tests] and 2.32 nM [mean of 6 tests]
same,TGI,M14 melanoma,0.63 nM and 3.52 µM
same,TGI,EKVX NSCLC,"0.873 nM, 526 nM, 50 µM, 65.1 µM"
same,TGI,HCT-15 colon,"0.5 nM [1 test] and 4.36 µM [mean of 3 tests] and 22.4 nM, 6.02 µM [mean of 6 tests] and 0.143 nM [mean of 9 tests]"
same,TGI,SK-OV-3 ovarian,"0.279 nM, 126 nM, 595 nM, 2.79 µM"
same,TGI,MCF7 breast,0.5 nM [1 test] and 11.4 µM [mean of 3 tests] and 26.1 µM [mean of 5 tests] and 1.61 µM [mean of 6 tests]
same,TGI,NCI/ADR-RES ovarian,0.5 nM [1 test] and 11.1 nM [mean of 3 tests] and > 80.4 µM [mean of 4 tests] and 14.8 nM [mean of 5 tests] and 0.0718 nM [mean of 9 tests]
same,TGI,KM12 colon,0.5 nM [1 test] and 1.91 µM [mean of 2 tests] and 2.07 µM [mean of 4 tests] and 50.7 nM [mean of 6 tests] and 0.047 nM [mean of 8 tests]
same,TGI,NCI-H23 lung,"50 nM, 500 nM [mean of 2 tests] and 907 nM [mean of 4 tests] and 0.156 nM [mean of 8 tests]"
same,TGI,SN12C renal,1.84 µM [mean of 3 tests] and 1.98 µM [mean of 5 tests] and 29.4 µM [mean of 8 tests] and 0.285 nM [mean of 9 tests]
same,TGI,HS 578T breast,0.0172 nM and > 68.8 µM
same,TGI,SF-539 CNS,< 5e-05 nM [1 test] and 5.15 nM [mean of 3 tests] and 0.000149 nM [mean of 9 tests]
same,TGI,DMS 273 small cell lung,"0.5, 91.3, 569, 18.1 nM"
same,TGI,HCT-116 colon,0.5 nM [1 test] and 11.4 µM [mean of 3 tests] and 1.52 µM [mean of 5 tests] and 1.11 µM [mean of 6 tests] and 0.266 nM [mean of 8 tests]
same,TGI,RXF 393 renal,"< 5e-05 nM, 50 µM [1 test] and 229 nM [mean of 5 tests] and 0.000696 nM [mean of 6 tests]"
same,TGI,COLO 205 colon,"0.5, 0.00708, 18.1, 239, 27 nM"
same,TGI,NCI-H460 lung,0.5 nM [1 test] and 579 nM [mean of 3 tests] and 16.3 nM [mean of 5 tests] and 145 nM [mean of 7 tests] and 0.131 nM [mean of 8 tests]
same,TGI,P388/ADR leukemia,"0.5 nM [1 test] and 809 nM, 700 nM [mean of 2 tests] and 142 nM [mean of 4 tests] and 0.0253 nM [mean of 5 tests]"
same,TGI,SNB-78 CNS,"0.5 nM [1 test] and 46.6 µM [mean of 2 tests] and 232 nM, 26.4 µM [mean of 3 tests]"
same,TGI,MOLT-4 leukemia,< 5e-05 nM [1 test] and 108 nM [mean of 3 tests] and 50 nM [mean of 4 tests] and 7.77 µM [mean of 7 tests] and 0.305 nM [mean of 9 tests]
same,TGI,CAKI-1 renal,"0.5 nM [1 test] and 50 µM [mean of 2 tests] and 586 nM [mean of 5 tests] and 0.068 nM, 163 nM [mean of 6 tests]"
same,TGI,DLD-1 colon,"0.5 nM, 0.251 nM, 911 nM, 35.3 µM, 12 µM"
same,TGI,LOX IMVI melanoma,"0.5 nM [1 test] and 23.2 µM [mean of 3 tests] and 877 nM, 3.44 µM [mean of 5 tests] and 0.3 nM [mean of 6 tests]"
same,TGI,SNB-19 CNS,"2.32 µM [mean of 3 tests] and 1.03 µM, 4.26 µM [mean of 6 tests] and 0.192 nM [mean of 9 tests]"
same,TGI,UO-31 renal,"5 µM, 50 µM [mean of 3 tests] and 54.5 µM [mean of 8 tests]"
same,TGI,K-562 leukemia,"0.5 nM, 5 µM, 23.2 µM, 30.1 µM"
same,TGI,MDA-MB-231 breast,17.7 nM [1 test] and 0.034 nM [mean of 4 tests]
same,TGI,SK-MEL-2 melanoma,"0.0193 nM, 29.2 nM, 50 µM, 187 nM"
same,TGI,SF-268 CNS,50 µM [mean of 2 tests] and 3.47 µM [mean of 5 tests] and 13.1 µM [mean of 8 tests] and 0.392 nM [mean of 9 tests]
same,TGI,CCRF-CEM leukemia,< 5e-05 nM [1 test] and 500 nM [mean of 2 tests] and 367 nM [mean of 5 tests] and 3.92 µM [mean of 7 tests] and 0.144 nM [mean of 9 tests]
same,TGI,SN12K1 renal,0.5 nM [1 test] and 500 nM [mean of 2 tests]
same,TGI,HOP-18 NSCLC,"5 µM, > 50 µM, 73 µM"
same,TGI,HT29 colon,0.5 nM [1 test] and 23.2 nM [mean of 3 tests] and 0.000445 nM [mean of 7 tests]
same,TGI,HCC-2998 colon,"0.000719, 2.04, 603, 101 nM"
same,TGI,OVCAR-8 ovarian,0.5 nM [1 test] and 500 nM [mean of 2 tests] and 256 nM [mean of 5 tests] and 1.93 µM [mean of 7 tests] and 0.0271 nM [mean of 9 tests]
same,TGI,HOP-62 NSCLC,33.4 µM [mean of 2 tests] and 2.68 nM [mean of 4 tests] and 0.0266 nM [mean of 6 tests] and 57.3 nM [mean of 8 tests]
same,TGI,U251 CNS,"0.5 nM [1 test] and 575 nM [mean of 3 tests] and 1.83 µM [mean of 5 tests] and 0.139 nM, 1.11 µM [mean of 6 tests]"
same,TGI,IGROV1 ovarian,50 µM [mean of 3 tests] and 793 nM [mean of 5 tests] and 12.2 µM [mean of 8 tests] and 0.863 nM [mean of 9 tests]
same,TGI,SK-MEL-28 melanoma,50 µM [mean of 3 tests] and 5 µM [mean of 4 tests] and > 68.6 µM [mean of 6 tests]
same,TGI,M19-MEL melanoma,"0.5 nM, 5 µM, 50 µM, 20.6 µM"
same,TGI,HOP-92 NSCLC,0.5 nM [1 test] and 1.48 µM [mean of 2 tests] and 0.776 nM [mean of 4 tests] and 0.087 nM [mean of 5 tests] and 215 nM [mean of 6 tests]
same,TGI,SK-MEL-5 melanoma,"0.5 nM [1 test] and 3.88 nM, 2.32 µM [mean of 3 tests] and 0.00132 nM [mean of 6 tests]"
same,TGI,SNB-75 CNS,"0.0464 nM, 500 nM, 150 nM, 8.9 µM"
same,TGI,RPMI-8226 leukemia,< 5e-05 nM [1 test] and 1.26 µM [mean of 3 tests] and 1.97 µM [mean of 4 tests] and 10.9 µM [mean of 7 tests]
same,TGI,DMS 114 small cell lung,"0.0872 nM, 0.00398 nM, 23.2 nM, < 215 nM"
same,TGI,UACC-62 melanoma,"0.356 nM, 232 nM, 50 µM, 469 nM"
